Source: the supplement of paper PMC12217912
The other results are listed elsewhere or left out. The full chains were built here from the parent and the listed change. Values near 0.05 are background.

B1: TEV protease; numbered along this chain (parent)
chain: MGESLFKGPRDYNPISSSICHLTNESDGHTTSLYGIGFGPFIITNKHLFRRNNGTLVVQSLHGVFKVKDTTTLQQHLVDGRDMIIIRMPKDFPPFPQKLKFREPQREERICLVTTNFQTKSMSSMVSDTSCTFPSGDGIFWKHWIQTKDGQCGSPLVSTRDGFIVGIHSASNFTNTNNYFTSVPKNFMELLTNQEAQQWVSGWRLNADSVLWGGHKVFMVKPEEPFQPVKEATQL

Variants of: B1
Test: raw area under fraction-flipped curve 0-4 h after induction (AUC4h, not background-subtracted), DNA-recorder readout of cleavage of the substrate (dimensionless); higher = more cleavage of the substrate by the protease variant
Details: temperature: 34 °C; time window: 0-4 h after rhamnose induction
Protocol: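 In vivo DNA recorder in E. coli TOP10(DE3) ΔrhaA at 34 °C. Each TEVp single-site mutant (parent TEVp 0) is paired with a single-site variant of the 7-mer TEVs (canonical ENLYFQ|S). The substrate sits between flexible linkers in a Bxb1-sfGFP-TEVs-SsrA fusion, so cleavage stabilises Bxb1 and speeds flipping of a recombination array, read by NGS. The value is the raw area under the fraction-flipped curve over 0-4 h after rhamnose induction (AUC4h), with ≥20 reads per time point. It is not background-subtracted; inactive controls average about 0.047.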
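Also: Bxb1 expression induced with 0.2% (w/v) L-rhamnose at OD600 near 0.5, cultures sampled hourly, flipped fraction per protease–substrate barcode pair counted by paired-end Illumina sequencing.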

Variant | area with substrate ENLYFAS | area with substrate ENLYFES | area with substrate ENLYFFS | area with substrate ENLYFIS | area with substrate ENLYFKS | area with substrate ENLYFLS | area with substrate ENLYFMS | area with substrate ENLYFRS | area with substrate ENLYFTS | area with substrate ENLYFVS | area with substrate ENLYFCS | area with substrate ENLYFNS | area with substrate ENLYFSS | area with substrate ENLYFWS | area with substrate ENLYFYS | area with substrate ENLYFDS | area with substrate ENLYFPS | area with substrate ENLYFGS | area with substrate ENLYFHS
MGESLFKGPRDYNPISSSICHLTNESDGHTTSLYGIGFGPFIITNKHLFRRNNGTLVVQSLHGVFKVKDTTTLQQHLVDGRDMIIIRMPKDFPPFPQKLKFREPQREERICLVTTNFQTKSMSSMVSDTSCTFPSGDGIFWKHWILTKDGQCGSPLVSTRDGFIVGIHSASNFTNTNNYFTSVPKNFMELLTNQEAQQWVSGWRLNADSVLWGGHKVFMVKPEEPFQPVKEATQL [Q146L] | 0.0542 | 0.0641 | 0.0685 | 0.0544 | 0.0647 | 0.0666 | 0.0802 | 0.0568 | 0.0588 | 0.0547 |  |  |  |  |  |  |  |  | 
MGESLFKGPRDYNPISSSICHLTNESDGHTTSLYGIGFGPFIITNKHLFRRNNGTLVVQSLHGVFKVKDTTTLQQHLVDGRDMIIIRMPKDFPPFPQKLKFREPQREERICLVTTNFQTKSMSSMVSDTSCTFPSGDGIFWKHWIQCKDGQCGSPLVSTRDGFIVGIHSASNFTNTNNYFTSVPKNFMELLTNQEAQQWVSGWRLNADSVLWGGHKVFMVKPEEPFQPVKEATQL [T147C] | 0.0565 |  | 0.0761 | 0.0624 |  | 0.058 | 0.0692 | 0.0633 | 0.0639 |  | 0.0317 | 0.0814 | 0.0623 | 0.0354 | 0.0574 |  |  |  | 
MGESLFKGPRDYNPISSSICHLTNESDGHTTSLYGIGFGPFIITNKHLFRRNNGTLVVQSLHGVFKVKDTTTLQQHLVDGRDMIIIRMPKDFPPFPQKLKFREPQREERICLVTTNFQTKSMSSMVSDTSCTFPSGDGIFWKHWIQTDDGQCGSPLVSTRDGFIVGIHSASNFTNTNNYFTSVPKNFMELLTNQEAQQWVSGWRLNADSVLWGGHKVFMVKPEEPFQPVKEATQL [K148D] | 0.0549 |  | 0.0967 | 0.0491 | 0.0767 | 0.0549 | 0.0627 |  |  | 0.0649 |  | 0.0561 | 0.0524 | 0.0666 | 0.0726 | 0.0612 | 0.0753 |  | 
MGESLFKGPRDYNPISSSICHLTNESDGHTTSLYGIGFGPFIITNKHLFRRNNGTLVVQSLHGVFKVKDTTTLQQHLVDGRDMIIIRMPKDFPPFPQKLKFREPQREERICLVTTNFQTKSMSSMVSDTSCTFPSGDGIFWKHWIQTYDGQCGSPLVSTRDGFIVGIHSASNFTNTNNYFTSVPKNFMELLTNQEAQQWVSGWRLNADSVLWGGHKVFMVKPEEPFQPVKEATQL [K148Y] | 0.0575 | 0.0933 | 0.0699 |  |  | 0.0391 |  | 0.0459 |  | 0.0708 |  | 0.0623 | 0.0554 |  |  | 0.0246 | 0.0803 |  | 
MGESLFKGPRDYNPISSSICHLTNESDGHTTSLYGIGFGPFIITNKHLFRRNNGTLVVQSLHGVFKVKDTTTLQQHLVDGRDMIIIRMPKDFPPFPQKLKFREPQREERICLVTTNFQTKSMSSMVSDTSCTFPSGDGIFWKHWIQTKCGQCGSPLVSTRDGFIVGIHSASNFTNTNNYFTSVPKNFMELLTNQEAQQWVSGWRLNADSVLWGGHKVFMVKPEEPFQPVKEATQL [D149C] | 0.0585 | 0.0922 | 0.0629 |  |  |  | 0.0466 | 0.0604 |  |  | 0.0373 | 0.072 |  | 0.0453 | 0.0727 |  | 0.027 | 0.0718 | 
MGESLFKGPRDYNPISSSICHLTNESDGHTTSLYGIGFGPFIITNKHLFRRNNGTLVVQSLHGVFKVKDTTTLQQHLVDGRDMIIIRMPKDFPPFPQKLKFREPQREERICLVTTNFQTKSMSSMVSDTSCTFPSGDGIFWKHWIQTKHGQCGSPLVSTRDGFIVGIHSASNFTNTNNYFTSVPKNFMELLTNQEAQQWVSGWRLNADSVLWGGHKVFMVKPEEPFQPVKEATQL [D149H] | 0.0609 | 0.0532 | 0.0748 | 0.0697 |  |  |  |  | 0.0388 |  |  |  | 0.0649 | 0.054 | 0.0545 |  | 0.0665 |  | 
MGESLFKGPRDYNPISSSICHLTNESDGHTTSLYGIGFGPFIITNKHLFRRNNGTLVVQSLHGVFKVKDTTTLQQHLVDGRDMIIIRMPKDFPPFPQKLKFREPQREERICLVTTNFQTKSMSSMVSDTSCTFPSGDGIFWKHWIQTKDGACGSPLVSTRDGFIVGIHSASNFTNTNNYFTSVPKNFMELLTNQEAQQWVSGWRLNADSVLWGGHKVFMVKPEEPFQPVKEATQL [Q151A] | 0.0594 |  | 0.0721 | 0.0555 | 0.0621 |  | 0.0686 | 0.0461 | 0.0577 |  | 0.0647 |  |  |  | 0.0594 |  | 0.0603 | 0.0063 | 
MGESLFKGPRDYNPISSSICHLTNESDGHTTSLYGIGFGPFIITNKHLFRRNNGTLVVQSLHGVFKVKDTTTLQQHLVDGRDMIIIRMPKDFPPFPQKLKFREPQREERICLVTTNFQTKSMSSMVSDTSCTFPSGDGIFWKHWIQTKDGRCGSPLVSTRDGFIVGIHSASNFTNTNNYFTSVPKNFMELLTNQEAQQWVSGWRLNADSVLWGGHKVFMVKPEEPFQPVKEATQL [Q151R] | 0.0543 | 0.107 | 0.0745 |  | 0.0644 | 0.0581 | 0.0586 |  | 0.0621 | 0.0643 |  | 0.0582 | 0.0747 |  |  |  |  |  | 
MGESLFKGPRDYNPISSSICHLTNESDGHTTSLYGIGFGPFIITNKHLFRRNNGTLVVQSLHGVFKVKDTTTLQQHLVDGRDMIIIRMPKDFPPFPQKLKFREPQREERICLVTTNFQTKSMSSMVSDTSCTFPSGDGIFWKHWIQTKDGQCGSRLVSTRDGFIVGIHSASNFTNTNNYFTSVPKNFMELLTNQEAQQWVSGWRLNADSVLWGGHKVFMVKPEEPFQPVKEATQL [P155R] | 0.0478 | 0.0425 | 0.0529 | 0.0498 |  |  | 0.0618 | 0.049 | 0.0497 | 0.0479 | 0.0466 | 0.0556 |  |  | 0.0521 |  | 0.0631 |  | 0.0505
MGESLFKGPRDYNPISSSICHLTNESDGHTTSLYGIGFGPFIITNKHLFRRNNGTLVVQSLHGVFKVKDTTTLQQHLVDGRDMIIIRMPKDFPPFPQKLKFREPQREERICLVTTNFQTKSMSSMVSDTSCTFPSGDGIFWKHWIQTKDGQCGSPLISTRDGFIVGIHSASNFTNTNNYFTSVPKNFMELLTNQEAQQWVSGWRLNADSVLWGGHKVFMVKPEEPFQPVKEATQL [V157I] | 0.0256 |  |  |  |  | 0.0622 | 0.0828 | 0.0563 | 0.0483 | 0.0548 | 0.0623 |  | 0.0465 |  | 0.0539 | 0.0557 | 0.0728 |  | 0.0536
